Test results published in PubChem BioAssay AID624417 (National Center for Advancing Translational Sciences (NCATS), 2012).
Out of some 410,000 compounds screened, about 6,400 (1.6%) were called active. The inconclusive results got no clear call from the source; some entries with a clear call stand among them for comparison. The call rests on the fitted dose curve; in most records, active means well fitted inhibition curve with a large enough effect; inconclusive means small, poorly fitted or top-dose-only effect; inactive means no such curve, though single readings can be large or run the other way. Potencies of inconclusive entries are left out as doubtful fits.

molecular target: Glucagon-like peptide 1 receptor (Homo sapiens) (UniProt P43220); test: qHTS of GLP-1 Receptor Inverse Agonists (Inhibition Mode); conditions: HEK293 GLP-1R CRE-luciferase, luminescence, 24 h, GLP-1R form is constitutively active; activity change, negative = inhibition: at 38.3 µM (top of the series) unless noted; further: nearly all actives have a fitted effect of over 55% in size
UniProt P43220, sequence (P43220 whole entry, looked up): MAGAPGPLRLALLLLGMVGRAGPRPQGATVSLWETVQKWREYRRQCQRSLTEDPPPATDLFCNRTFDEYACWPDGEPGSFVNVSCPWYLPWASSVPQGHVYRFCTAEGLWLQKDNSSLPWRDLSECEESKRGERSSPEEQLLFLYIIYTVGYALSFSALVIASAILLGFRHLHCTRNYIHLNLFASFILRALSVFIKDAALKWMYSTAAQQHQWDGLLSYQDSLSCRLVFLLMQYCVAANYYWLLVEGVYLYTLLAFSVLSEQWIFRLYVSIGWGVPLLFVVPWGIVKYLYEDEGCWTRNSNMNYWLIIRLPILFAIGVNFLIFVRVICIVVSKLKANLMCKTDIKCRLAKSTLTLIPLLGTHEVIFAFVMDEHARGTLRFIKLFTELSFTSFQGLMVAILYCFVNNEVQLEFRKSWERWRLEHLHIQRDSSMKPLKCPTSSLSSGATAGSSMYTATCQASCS
Procedure, shortened: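 qHTS in 1536-well format: reporter HEK293 cells expressing constitutive GLP-1R activity in DMEM + 10% Nu serum, 24 hr with compounds at 37 deg C, luminescence read after 12 min with detection reagent.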
On the % scale 0 is the no-effect control and ±100 the full control effect; potency means the concentration at half of the fitted maximal effect; tags describe the fitted curve by direction and shape.

Row | SMILES | Potency | activity change, negative = inhibition
1 | CC(C)(C)c1ccc(C(=O)OCC(=O)NCc2ccco2)cc1 | inconclusive [inhibitor, single point] | 
2 | O=C(O)/C(=C\c1ccc2ccccc2c1)c1cccc2ccccc12 | inconclusive [inhibitor, partial curve] | 
3 | CCCCCOc1ccc(C2c3c(oc4ccccc4c3=O)C(=O)N2c2nc(C)c(C)s2)cc1OCC (stereo unspecified) | inactive | 
4 | COc1ccc(C2=NN3C(C2)c2ccccc2OC32C(=O)N(C)c3ccccc32)cc1 (stereo unspecified) | inconclusive [inhibitor, single point] | 
5 | Cc1ccc(-c2nc3ccc(C)cn3c2Cc2ccccc2C(F)(F)F)cc1 | inconclusive [inhibitor, single point] | 
6 | COc1ccc(NC(=S)N(CCCN2CCCC(C)C2)Cc2cccs2)cc1 (stereo unspecified) | inconclusive [inhibitor, single point] | 
7 | O=C(Nc1ccc(N2CCOCC2)cc1)c1cc2c(s1)CCCC2 | inconclusive [inhibitor, partial curve, poor fit] | 
8 | O=C(Nc1nc2cc3c(cc2s1)OCCO3)c1cccc(N2C(=O)CCC2=O)c1 | inconclusive [inhibitor, single point] | 
9 | Cc1cccc(NC(=O)Cn2cc(C(=O)c3ccco3)c3ccccc32)c1C | inactive | 
10 | COc1ccc(CN2C(=O)C(NC(=O)c3ccccc3C)(C(F)(F)F)N=C2c2ccccc2)cc1 (stereo unspecified) | inconclusive [inhibitor, partial curve, poor fit] | 
11 | CCCCC1=CC2=CC(=O)C(C)(OC(=O)CCc3ccccc3)C(=O)C2=CO1 (stereo unspecified) | inactive | 
12 | CCN1CCN(c2cc(C)c3cc(NC(=S)N4CC(C)CC(C)C4)ccc3n2)CC1 (stereo unspecified) | inconclusive [inhibitor, partial curve, poor fit] | 
13 | COc1ccc(C2=CC(=O)C[C@H](c3ccc(Cl)cc3)C2)cn1 | inconclusive [inhibitor, single point] | 
14 | COc1ccc2c(c1)-c1nc(NC(=O)c3ccc(Cl)cc3)sc1CC2 | inactive | 
15 | Cc1ccc(S(=O)(=O)N(C)c2ccc(OCC(=O)N3CCCC(C(F)(F)F)C3)cc2)cc1 (stereo unspecified) | inconclusive [inhibitor, partial curve, poor fit] | 
16 | CC1CCC(NC(=O)c2cc(C3CC3)nn2-c2ccccc2)CC1 (stereo unspecified) | inconclusive [inhibitor, partial curve, poor fit] | 
17 | COc1ccc(CNc2ncnc3c2nnn3C)cc1 | inactive | 
18 | COc1ccc(S(=O)(=O)NCC(=O)N(CC(=O)NCc2ccco2)Cc2ccccc2)cc1 | inconclusive [inhibitor, full curve, poor fit] | 
19 | CCOc1ccccc1NC(=O)COc1coc(CN2CCc3ccccc32)cc1=O | inconclusive [inhibitor, single point] | 
20 | CCOC(=O)NC(=O)CSc1nc(-c2ccc(C)c(C)c2)cn1-c1ccccc1 | inconclusive [inhibitor, single point] | 
21 | CCC(C)Nc1nc2c(c(=O)n(C)c(=O)n2C)n1Cc1cccc(C)c1 (stereo unspecified) | inconclusive [inhibitor, partial curve, poor fit] | 

Row | SMILES | Potency | activity change, negative = inhibition
22 | CN1CC(=O)NC1=NC(=O)C12CC3CC(CC(C3)C1)C2 | inconclusive [inhibitor, single point] | 
23 | CCc1cccc2c(C(=O)CN3C(=O)NC4(CCCCCC4)C3=O)c[nH]c12 | inconclusive [inhibitor, full curve] | 
24 | COc1cccc(CNCc2ccccc2Br)c1OC | inconclusive [inhibitor, single point] | 
25 | CCn1cc(C(=O)NCCCN2CCCCCC2)c(=O)c2cc(S(=O)(=O)N3CCc4ccccc4C3)ccc21 | inconclusive [inhibitor, partial curve, poor fit] | 
26 | Cc1cccc(NC(=S)NC(=O)/C=C/c2ccco2)c1 | inconclusive [inhibitor, partial curve, poor fit] | 
27 | COc1ccc(Br)cc1CNC(=O)CN1CCSc2ccccc21 | inconclusive [inhibitor, partial curve, poor fit] | 
28 | CC(C)(C)c1ccc(OCC(=O)Nc2ccncc2)c(Br)c1 | inconclusive [inhibitor, partial curve] | 
29 | Cc1nc(Nc2ccccc2)sc1C(=O)Nc1ccccc1 | inconclusive [inhibitor, partial curve, poor fit] | 
30 | COc1ccc(C(C)NC(=O)C2CCN(CCOc3ccc(Cl)cc3Cl)CC2)cc1OC (stereo unspecified) | inconclusive [inhibitor, single point] | 
31 | Cc1ccc2[nH]c(C(=O)N/N=C/c3ccc([N+](=O)[O-])cc3)c(C)c2c1 | inconclusive [inhibitor, full curve, poor fit] | 
32 | O=C(COc1ccc(C(=S)N2CCCC2)cc1)Nc1ccc(F)cc1 | inconclusive [inhibitor, single point] | 
33 | O=C(Nc1ccc(Cl)c(Cl)c1)N1CCC(c2ccccc2)C1 (stereo unspecified) | inconclusive [inhibitor, single point] | 
34 | COc1cc(CCC(N)c2cccc(O)c2)cc(OC)c1OC (stereo unspecified) | inconclusive [inhibitor, single point] | 
35 | Nc1c(-c2ccc(Cl)cc2)cnn1-c1cccc(C(F)(F)F)c1 | inconclusive [inhibitor, partial curve, poor fit] | 
36 | OC1CCCN(Cc2cn(Cc3ccccc3)nc2-c2cc3ccccc3o2)C1 (stereo unspecified) | inconclusive [inhibitor, partial curve, poor fit] | 
37 | CC(C)c1nc(N2CCOCC2)c(C#N)c2c1CCCC2 | inconclusive [inhibitor, single point] | 
38 | CCc1ccc(-c2ccc(SCC(=O)NCC3CCCO3)nn2)cc1 (stereo unspecified) |  | inactive: -27.6% [at 0.307 µM]
39 | C=CCC[C@H](Cc1ccc(F)cc1)C(=O)O[C@H](CNC(=O)[C@@H](CC=C)CC(=O)N(CCO)Cc1ccccc1)c1ccccc1 | inconclusive [inhibitor, partial curve, poor fit] | 
40 | Cc1ccc(N2C(N)=C(C#N)C3(C(=O)N(C)c4ccccc43)C3=C2CC(C)(C)CC3=O)cc1Cl (stereo unspecified) | inconclusive [inhibitor, full curve, poor fit] | 
41 | CC(C)Cc1csc(NC(=O)C(C)C)c1C(=O)O | inconclusive [inhibitor, partial curve] | 
42 | CCc1nc(SCC(=O)Nc2ccc(NC(C)=O)cc2)n[nH]1 | inactive | 

Row | SMILES | Potency | activity change, negative = inhibition
43 | CCCCCOc1ccc(NC(=O)C(=O)NCC2CCCN2CC)cc1 (stereo unspecified) | inconclusive [inhibitor, partial curve, poor fit] | 
44 | COc1cccc(C2=Nc3cccc4cccc(c34)N2)c1 | inactive | 
45 | CC(C)CCNC(=O)CSCc1cnn(-c2ccccc2)c1-n1cccc1 | inconclusive [inhibitor, partial curve, poor fit] | 
46 | CC1(C)NC(=O)N(CC(O)CN(c2cccc([N+](=O)[O-])c2)S(=O)(=O)c2ccccc2)C1=O (stereo unspecified) | inactive | 
47 | O=C1[C@H](Cc2ccccc2)NCC=CC[C@H](c2ccco2)N1Cc1ccccc1 | inconclusive [inhibitor, single point] | 
48 | NNC(=O)C1CC1(c1ccccc1)c1ccccc1 (stereo unspecified) | inconclusive [inhibitor, single point] | 
49 | CCOC(=O)C1CCN(C(=O)c2ccc3nc(-c4ccc(OC)cc4)c(-c4ccc(OC)cc4)nc3c2)CC1 | inconclusive [inhibitor, full curve, poor fit] | 
50 | O=C(COC(=O)c1ccc(O)cc1O)NC12CC3CC(CC(C3)C1)C2 | inconclusive [inhibitor, partial curve] | 
51 | COc1nc(Nc2ccc([N+](=O)[O-])cc2)nc(NC2CCCCC2)n1 | inconclusive [inhibitor, partial curve, poor fit] | 
52 | Cc1ccc2oc(=O)c3cc(C(=O)NCCCN4CCN(C)CC4)sc3c2c1 | inconclusive [inhibitor, single point] | 
53 | Cc1cccc2c1-c1sc(C(=O)NCCc3ccc(Cl)cc3)cc1CO2 | inconclusive [inhibitor, partial curve, poor fit] | 
54 | Cc1cnc(NC(=O)Nc2ccc(OCc3ccccc3)cc2)c(Br)c1 | inconclusive [inhibitor, single point] | 
55 | COc1ccccc1-c1cc(NC(=O)COc2ccccc2Cl)n(-c2ccccc2)n1 | inactive | 
56 | CCn1cc(S(=O)(=O)NC(C)c2cc(OC)ccc2OC)cn1 (stereo unspecified) | inactive | 
57 | COc1ccc(C(=O)Nc2ccccc2-c2ccccc2)cc1Cl | inconclusive [inhibitor, single point] | 
58 | Cc1ccc(-c2[nH]c3ccccc3c2SCCNC(=O)c2ccc(S(=O)(=O)N3CCOCC3)cc2)cc1 | inconclusive [inhibitor, single point] | 
59 | CC(NC(=O)C(=O)c1cn(CC(=O)N2CCCC2)c2ccccc12)c1ccccc1 (stereo unspecified) | inconclusive [inhibitor, partial curve, poor fit] | 
60 | O=C(Cc1ccc(Cl)cc1)N1CCN(c2ccc(F)cc2)CC1 | inconclusive [inhibitor, single point] | 
61 | COc1ccccc1C(NC(=O)C1CCN(CCc2ccc(Br)cc2)CC1)c1ccccn1 (stereo unspecified) | inconclusive [inhibitor, partial curve] | 
